# Results reported in the supplement of paper PMC8728848.
# The list shows a part of the results.
# B1: PLU (Photorhabdus luminiscence) (protein)
# chain: HHHHHHENLYFQSSIVFASIDPRSNPLQTSSQNYVDIPGLKLDVSKYSNSPCLTALITLNIPTPYASGNNFPGGNFAIVTDQGEQLAYGGFTYSSKIPENSGRMPFTLVARYSLASNVSTIKAQWSNIRGSTVHIDSYASISAVIQCNQLV
# Legend:
# Assay in all cases: glycan array binding signal (z-score within array); higher = stronger binding
# Conditions in all cases: glycan notation: IUPAC condensed, linker removed
# [1] = molecular target: Gal(b1-3)GlcNAc(b1-2)Man(a1-3)[Gal(b1-3)GlcNAc(b1-2)Man(a1-6)]Man(b1-4)GlcNAc(b1-4)[Fuc(a1-6)]GlcNAc
# Procedure, shortened: (§1)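 Glycan array binding is given as a within-array Z-score, which can be read as non-binding when negative. The arrays, 3228 of them, came from the Consortium for Functional Glycomics database and were retained only where the protein sequence was available. Z-scores were averaged across arrays of the same protein sequence at different concentrations or buffers and across linkers.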
# [2] = molecular target: Gal(b1-3)GlcNAc(b1-2)Man(a1-3)[GlcNAc(b1-4)][Gal(b1-3)GlcNAc(b1-2)Man(a1-6)]Man(b1-4)GlcNAc(b1-4)GlcNAc
# Procedure, shortened: as §1
# [3] = molecular target: Gal(b1-3)GlcNAc(b1-2)[Gal(b1-3)GlcNAc(b1-6)]Man(a1-6)[Gal(b1-3)GlcNAc(b1-2)Man(a1-3)]Man(b1-4)GlcNAc(b1-4)GlcNAc
# Procedure, shortened: as §1
# [4] = molecular target: Gal(b1-3)GlcNAc(b1-3)Gal(b1-3)GlcNAc
# Procedure, shortened: as §1
# [5] = molecular target: Gal(b1-3)GlcNAc(b1-3)Gal(b1-4)Glc
# Procedure, shortened: as §1
# [6] = molecular target: Gal(b1-3)GlcNAc(b1-3)Gal(b1-4)GlcNAc
# Procedure, shortened: as §1
# [7] = molecular target: Gal(b1-3)GlcNAc(b1-3)Gal(b1-4)GlcNAc(b1-2)Man(a1-3)[Gal(b1-3)GlcNAc(b1-3)Gal(b1-4)GlcNAc(b1-2)Man(a1-6)]Man(b1-4)GlcNAc(b1-4)GlcNAc
# Procedure, shortened: as §1
# [8] = molecular target: Gal(b1-3)GlcNAc(b1-3)Gal(b1-4)GlcNAc(b1-2)[Gal(b1-3)GlcNAc(b1-3)Gal(b1-4)GlcNAc(b1-6)]Man(a1-6)[Gal(b1-3)GlcNAc(b1-3)Gal(b1-4)GlcNAc(b1-2)Man(a1-3)]Man(b1-4)GlcNAc(b1-4)[Fuc(a1-6)]GlcNAc
# Procedure, shortened: as §1
# [9] = molecular target: Gal(b1-3)GlcNAc(b1-3)Gal(b1-4)GlcNAc(b1-3)Gal(b1-4)GlcNAc(b1-2)[Gal(b1-3)GlcNAc(b1-3)Gal(b1-4)GlcNAc(b1-3)Gal(b1-4)GlcNAc(b1-6)]Man(a1-6)[Gal(b1-3)GlcNAc(b1-3)Gal(b1-4)GlcNAc(b1-3)Gal(b1-4)GlcNAc(b1-2)Man(a1-3)]Man(b1-4)GlcNAc(b1-4)[Fuc(a1-6)]GlcNAc
# Procedure, shortened: as §1
# [10] = molecular target: Gal(b1-3)GlcNAc(b1-3)Gal(b1-4)GlcNAc(b1-6)[Gal(b1-3)GlcNAc(b1-3)]Gal(b1-4)Glc
# Procedure, shortened: as §1
# [11] = molecular target: Gal(b1-3)GlcNAc(b1-3)Gal(b1-4)[Fuc(a1-3)]GlcNAc
# Procedure, shortened: as §1
# [12] = molecular target: Gal(b1-3)GlcNAc(b1-3)Gal(b1-4)[Fuc(a1-3)]GlcNAc(b1-6)[Gal(b1-3)GlcNAc(b1-3)]Gal(b1-4)Glc
# Procedure, shortened: as §1
# [13] = molecular target: Gal(b1-3)GlcNAc(b1-3)GalNAc
# Procedure, shortened: as §1
# [14] = molecular target: Gal(b1-3)GlcNAc(b1-6)Gal(b1-4)GlcNAc
# Procedure, shortened: as §1
# [15] = molecular target: Gal(b1-3)GlcNAc(b1-6)GalNAc
# Procedure, shortened: as §1
# [16] = molecular target: Gal(b1-3)GlcNAc(b1-6)[Gal(b1-3)]GalNAc
# Procedure, shortened: as §1
# [17] = molecular target: Gal(b1-3)GlcNAc6S
# Procedure, shortened: as §1
# [18] = molecular target: Gal(b1-3)[Fuc(a1-4)]GlcNAc
# Procedure, shortened: as §1
# [19] = molecular target: Gal(b1-3)[Fuc(a1-4)]GlcNAc(b1-2)Man
# Procedure, shortened: as §1
# [20] = molecular target: Gal(b1-3)[Fuc(a1-4)]GlcNAc(b1-2)Man(a1-3)[Gal(b1-3)[Fuc(a1-4)]GlcNAc(b1-2)Man(a1-6)]Man(b1-4)GlcNAc(b1-4)[Fuc(a1-6)]GlcNAc
# Procedure, shortened: as §1
# [21] = molecular target: Gal(b1-3)[Fuc(a1-4)]GlcNAc(b1-3)Gal(b1-3)[Fuc(a1-4)]GlcNAc
# Procedure, shortened: as §1
# [22] = molecular target: Gal(b1-3)[Fuc(a1-4)]GlcNAc(b1-3)Gal(b1-4)[Fuc(a1-3)]GlcNAc
# Procedure, shortened: as §1
# [23] = molecular target: Gal(b1-3)[Fuc(a1-4)]GlcNAc(b1-6)GalNAc
# Procedure, shortened: as §1
# [24] = molecular target: Gal(b1-3)[GlcNAc(b1-6)]GalNAc
# Procedure, shortened: as §1
# [25] = molecular target: Gal(b1-3)[Neu5Ac(a2-6)]GalNAc
# Procedure, shortened: as §1
# [26] = molecular target: Gal(b1-3)[Neu5Ac(a2-6)]GlcNAc(b1-4)Gal(b1-4)Glc
# Procedure, shortened: as §1
# [27] = molecular target: Gal(b1-3)[Neu5Ac(b2-6)]GalNAc
# Procedure, shortened: as §1
# [28] = molecular target: Gal(b1-4)Gal
# Procedure, shortened: as §1
# [29] = molecular target: Gal(b1-4)GalNAc(a1-3)[Fuc(a1-2)]Gal(b1-4)GlcNAc
# Procedure, shortened: as §1
# [30] = molecular target: Gal(b1-4)GalNAc(b1-3)[Fuc(a1-2)]Gal(b1-4)GlcNAc
# Procedure, shortened: as §1
# [31] = molecular target: Gal(b1-4)Glc
# Procedure, shortened: as §1
# [32] = molecular target: Gal(b1-4)Glc6S
# Procedure, shortened: as §1
# [33] = molecular target: Gal(b1-4)GlcNAc
# Procedure, shortened: as §1
# [34] = molecular target: Gal(b1-4)GlcNAc(a1-6)Gal(b1-4)GlcNAc
# Procedure, shortened: as §1
# [35] = molecular target: Gal(b1-4)GlcNAc(b1-2)Man
# Procedure, shortened: as §1
# [36] = molecular target: Gal(b1-4)GlcNAc(b1-2)Man(a1-3)Man(b1-4)GlcNAc(b1-4)GlcNAc
# Procedure, shortened: as §1
# [37] = molecular target: Gal(b1-4)GlcNAc(b1-2)Man(a1-3)[Gal(b1-4)GlcNAc(b1-2)Man(a1-6)]Man(b1-4)GlcNAc(b1-4)GlcNAc
# Procedure, shortened: as §1
# [38] = molecular target: Gal(b1-4)GlcNAc(b1-2)Man(a1-3)[Gal(b1-4)GlcNAc(b1-2)Man(a1-6)]Man(b1-4)GlcNAc(b1-4)[Fuc(a1-6)]GlcNAc
# Procedure, shortened: as §1
# [39] = molecular target: Gal(b1-4)GlcNAc(b1-2)Man(a1-3)[Gal(b1-4)GlcNAc(b1-2)Man(a1-6)][Gal(b1-4)GlcNAc(b1-4)]Man(b1-4)GlcNAc(b1-4)[Fuc(a1-6)]GlcNAc
# Procedure, shortened: as §1
# [40] = molecular target: Gal(b1-4)GlcNAc(b1-2)Man(a1-3)[Gal(b1-4)GlcNAc(b1-2)Man(a1-6)][GlcNAc(b1-4)]Man(b1-4)GlcNAc(b1-4)[Fuc(a1-6)]GlcNAc
# Procedure, shortened: as §1
# [41] = molecular target: Gal(b1-4)GlcNAc(b1-2)Man(a1-3)[GlcNAc(b1-2)Man(a1-6)]Man(b1-4)GlcNAc(b1-4)GlcNAc
# Procedure, shortened: as §1
# [42] = molecular target: Gal(b1-4)GlcNAc(b1-2)Man(a1-3)[GlcNAc(b1-4)][Gal(b1-4)GlcNAc(b1-2)Man(a1-6)]Man(b1-4)GlcNAc(b1-4)GlcNAc
# Procedure, shortened: as §1
# [43] = molecular target: Gal(b1-4)GlcNAc(b1-2)Man(a1-3)[Man(a1-6)]Man(b1-4)GlcNAc(b1-4)GlcNAc
# Procedure, shortened: as §1
# [44] = molecular target: Gal(b1-4)GlcNAc(b1-2)Man(a1-6)Man(b1-4)GlcNAc(b1-4)GlcNAc
# Procedure, shortened: as §1
# [45] = molecular target: Gal(b1-4)GlcNAc(b1-2)Man(a1-6)[GlcNAc(b1-2)Man(a1-3)]Man(b1-4)GlcNAc(b1-4)GlcNAc
# Procedure, shortened: as §1
binder,measurement,setting,value
B1,glycan array binding signal (z-score),[1],0.019
same,glycan array binding signal (z-score),[2],-0.165
same,glycan array binding signal (z-score),[3],-0.274
same,glycan array binding signal (z-score),[4],-0.317
same,glycan array binding signal (z-score),[5],-0.267
same,glycan array binding signal (z-score),[6],-0.269
same,glycan array binding signal (z-score),[7],-0.108
same,glycan array binding signal (z-score),[8],-0.286
same,glycan array binding signal (z-score),[9],-0.083
same,glycan array binding signal (z-score),[10],-0.246
same,glycan array binding signal (z-score),[11],-0.214
same,glycan array binding signal (z-score),[12],-0.312
same,glycan array binding signal (z-score),[13],-0.311
same,glycan array binding signal (z-score),[14],-0.216
same,glycan array binding signal (z-score),[15],-0.235
same,glycan array binding signal (z-score),[16],-0.254
same,glycan array binding signal (z-score),[17],-0.213
same,glycan array binding signal (z-score),[18],-0.29
same,glycan array binding signal (z-score),[19],-0.209
same,glycan array binding signal (z-score),[20],-0.285
same,glycan array binding signal (z-score),[21],-0.323
same,glycan array binding signal (z-score),[22],-0.128
same,glycan array binding signal (z-score),[23],-0.185
same,glycan array binding signal (z-score),[24],-0.284
same,glycan array binding signal (z-score),[25],-0.319
same,glycan array binding signal (z-score),[26],-0.229
same,glycan array binding signal (z-score),[27],-0.298
same,glycan array binding signal (z-score),[28],-0.25
same,glycan array binding signal (z-score),[29],-0.299
same,glycan array binding signal (z-score),[30],-0.357
same,glycan array binding signal (z-score),[31],-0.354
same,glycan array binding signal (z-score),[32],-0.211
same,glycan array binding signal (z-score),[33],-0.337
same,glycan array binding signal (z-score),[34],-0.314
same,glycan array binding signal (z-score),[35],-0.321
same,glycan array binding signal (z-score),[36],-0.227
same,glycan array binding signal (z-score),[37],-0.246
same,glycan array binding signal (z-score),[38],-0.246
same,glycan array binding signal (z-score),[39],-0.357
same,glycan array binding signal (z-score),[40],-0.291
same,glycan array binding signal (z-score),[41],-0.262
same,glycan array binding signal (z-score),[42],-0.281
same,glycan array binding signal (z-score),[43],-0.351
same,glycan array binding signal (z-score),[44],-0.333
same,glycan array binding signal (z-score),[45],-0.232
